PubChem BioAssay (Tox21)
Inconclusive results, whose numbers are uncertain, are shown with a selection of clear calls. For some assays here: Potencies of inconclusive entries are doubtful fits and often do not repeat. The source holds several records for some structures; these can differ, active in one and inactive in another. Active and inactive are the calls of the source. Calls follow the shape of the dose curve; as a rule, active = well fitted curve in the direction sought with a large enough effect in the repeat runs; inconclusive = weak or mixed curves; inactive = no such curve, though single readings can be large; an effect the other way counts as inactive or inconclusive.

Legend:
[1] = Caspase-3/7 induction in HepG2 cells by small molecules, qHTS assay (AID 1346978); also: nearly all actives have a fitted effect of over 15% in size
Outline: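 Wild-type HepG2 cells (2,000/well) were settled 5 h at 37 C, 5% CO2, then exposed to compounds in DMSO for 17 h. Caspase-3/7 activity was read by luminescence 30 min after adding Caspase-Glo 3/7 reagent at room temperature.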

[2] = Caspase-3/7 induction in CHO-K1 cells by small molecules, qHTS cell viability counter screen (AID 1346979); also: nearly all actives have a fitted effect of over 35% in size
Outline: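 Following a 5hr settling period, CHO-K1 cells at 1,500 per well received DMSO-dissolved compounds. Cell viability was quantified 16hr later by CellTiter-Fluor fluorescence, measured after 1hr with reagent at 37C.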

[3] = Caspase-3/7 induction in CHO-K1 cells by small molecules, qHTS assay (AID 1346980); also: nearly all actives have a fitted effect of over 15% in size
Outline: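 Wild-type cells were seeded at 1,500 per well and settled 5 hr at 37 C, 5% CO2, then exposed to DMSO-dissolved compounds for 17 hr. Caspase-Glo 3/7 reagent was added, and luminescence was read after 30min at room temperature.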

[4] = target: Nuclear receptor subfamily 1 group I member 2 (Rattus norvegicus) (UniProt Q9R1A7); experiment: Rat pregnane X receptor (rPXR) activation by small molecules, qHTS assay (AID 1346983); settings: rPXR luciferase reporter cells, One-Glo luminescence, 24 h; max activation: hits give high values; also: nearly all actives have a fitted effect of over 20% in size
Outline: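 Cell-based rPXR luciferase reporter assay, 2,000 cells per well, rested 5hr at 37 C before compound addition in DMSO, then 24 hr at 37 C. One-Glo reagent was added and luminescence read after 30 min at room temperature.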

[5] = target: Cytochrome P450 2C19 (Homo sapiens) (UniProt P33261); experiment: Cytochrome P450 Family 2 Subfamily C Member 19 (CYP2C19) small molecule antagonists: luciferase reporter qHTS assay (AID 1671197); also: nearly all actives have a fitted effect of over 65% in size
Outline: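 Enzyme-substrate mix with proluciferin substrate (P450-Glo CYP2C19 system) preincubated with compounds 10 min at room temperature; NADPH regeneration solution added, 37C for 1 h; detection reagent stops reaction, luminescence read after 20 min. Ketoconazole positive control.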

[6] = Caspase-3/7 induction in HepG2 cells by small molecules, qHTS cell viability counter screen (AID 1346981); also: nearly all actives have a fitted effect of over 30% in size
Outline: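 After a 5-hr attachment period at 37 C and 5% CO2, wild-type HepG2 cells received compounds in DMSO. Sixteen hours later CellTiter-Fluor was dispensed and the fluorescent signal quantified after a further hour.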

[7] = target: Nuclear receptor subfamily 1 group I member 2 (Homo sapiens) (UniProt O75469); experiment: Human pregnane X receptor (PXR) small molecule agonists, qHTS assay (AID 1346982); also: nearly all actives have a fitted effect of over 35% in size
Outline: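 Tox21 qHTS; PXR-Luc HepG2; compounds pinned from DMSO; 24 hr, 37 C; ONE-Glo luciferase detection, 30 min room temperature.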
Potency is read from the fitted curve at half-maximal effect; tags tell the direction and shape of the fitted curve.

UniProt P33261, sequence (P33261 whole entry, looked up): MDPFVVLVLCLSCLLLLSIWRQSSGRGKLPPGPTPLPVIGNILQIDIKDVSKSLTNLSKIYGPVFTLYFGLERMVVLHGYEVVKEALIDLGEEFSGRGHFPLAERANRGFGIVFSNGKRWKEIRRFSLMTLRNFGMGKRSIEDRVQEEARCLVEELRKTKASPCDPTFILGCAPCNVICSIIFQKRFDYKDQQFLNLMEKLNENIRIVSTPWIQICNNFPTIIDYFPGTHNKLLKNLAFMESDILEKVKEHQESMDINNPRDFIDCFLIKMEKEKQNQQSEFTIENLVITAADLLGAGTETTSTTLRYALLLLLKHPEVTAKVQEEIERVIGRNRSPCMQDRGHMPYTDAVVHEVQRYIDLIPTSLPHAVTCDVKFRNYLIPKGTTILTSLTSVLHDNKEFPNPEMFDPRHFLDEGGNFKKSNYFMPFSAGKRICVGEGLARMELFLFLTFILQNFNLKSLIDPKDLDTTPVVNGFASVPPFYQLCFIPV
UniProt Q9R1A7, sequence (Q9R1A7 whole entry, looked up): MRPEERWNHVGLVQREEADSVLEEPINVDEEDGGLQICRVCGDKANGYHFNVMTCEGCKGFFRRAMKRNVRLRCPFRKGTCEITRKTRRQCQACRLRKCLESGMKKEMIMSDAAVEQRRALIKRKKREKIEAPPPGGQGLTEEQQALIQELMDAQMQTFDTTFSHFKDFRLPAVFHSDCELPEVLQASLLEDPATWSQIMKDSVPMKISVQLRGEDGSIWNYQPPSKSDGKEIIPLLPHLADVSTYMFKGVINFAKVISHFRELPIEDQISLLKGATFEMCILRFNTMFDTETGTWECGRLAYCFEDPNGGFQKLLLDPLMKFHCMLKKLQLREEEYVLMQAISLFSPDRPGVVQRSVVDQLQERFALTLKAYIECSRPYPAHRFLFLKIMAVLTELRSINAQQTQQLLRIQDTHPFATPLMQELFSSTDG
UniProt O75469, sequence (O75469 whole entry, looked up): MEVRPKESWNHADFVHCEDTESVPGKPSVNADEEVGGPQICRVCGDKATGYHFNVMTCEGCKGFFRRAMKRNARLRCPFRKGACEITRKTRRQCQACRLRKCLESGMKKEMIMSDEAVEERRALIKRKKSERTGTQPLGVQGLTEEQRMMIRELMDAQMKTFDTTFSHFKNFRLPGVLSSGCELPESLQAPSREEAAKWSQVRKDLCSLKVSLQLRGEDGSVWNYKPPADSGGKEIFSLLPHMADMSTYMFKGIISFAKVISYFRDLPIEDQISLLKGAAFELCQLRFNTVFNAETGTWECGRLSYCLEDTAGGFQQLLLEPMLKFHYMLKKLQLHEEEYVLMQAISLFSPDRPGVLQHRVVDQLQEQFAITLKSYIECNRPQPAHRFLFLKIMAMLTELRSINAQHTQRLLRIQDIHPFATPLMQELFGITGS

SMILES: CN(C)CCCN1c2ccccc2CCc2ccc(Cl)cc21
- Potency [1]: active: 61.1 µM

SMILES: CN[C@H]1CC[C@@H](c2ccc(Cl)c(Cl)c2)c2ccc(S(N)(=O)=O)cc21
- Potency [1]: inconclusive: 61.1 µM [activator, partial curve]
- Potency [2]: active: 61.1 µM
- Potency [3]: inconclusive: 68.6 µM [activator, single point]

SMILES: C[C@@H]1CC(=O)NN=C1c1ccc(NN=C(C#N)C#N)cc1
- Potency [1]: inconclusive: 33.5 µM [activator]
- Potency [2]: active: 11.9 µM
- Potency [3]: active: 13.3 µM
- Potency [4]: active: 14.1 µM
- Potency [5]: inconclusive: 34.7 µM [inhibitor, single point]

SMILES: CC/C(=C(/c1ccc(O)cc1)c1ccc(OCCN(C)C)cc1)c1ccccc1
- Potency [1]: active: 40.3 µM
- Potency [2]: active: 32 µM
- Potency [3]: inconclusive: 35.9 µM [activator, partial curve]
- Potency [6]: active: 28.5 µM
- Potency [7]: inconclusive: 5.7 µM [activator]
- Potency [5]: active: 37.2 µM

SMILES: CS(=O)(=O)CCNCc1ccc(-c2ccc3ncnc(Nc4ccc(OCc5cccc(F)c5)c(Cl)c4)c3c2)o1
- Potency [1]: active: 33.5 µM
- Potency [2]: active: 23.7 µM
- Potency [6]: active: 29.8 µM

SMILES: CCCCCCCCCCCCN1CCCC1=O
- Potency [1]: inconclusive: 68.6 µM [activator, partial curve, poor fit]
- Potency [2]: active: 61.1 µM
- Potency [6]: active: 61.1 µM

SMILES: CC(=O)N1CCN(c2ccc(OC[C@H]3CO[C@](Cn4ccnc4)(c4ccc(Cl)cc4Cl)O3)cc2)CC1
- Potency [1]: active: 68.6 µM

SMILES: CCN(CC)CCOC(=O)C1(C2CCCCC2)CCCCC1
- Potency [1]: inconclusive: 33.5 µM [activator]
- Potency [2]: inconclusive: 33.5 µM [cytotoxic, single point]
- Potency [3]: inconclusive: 29.8 µM [activator, single point]
- Potency [6]: inconclusive: 21.1 µM [cytotoxic, partial curve, poor fit]
